Test results published in PubChem BioAssay AID1346428 (National Center for Advancing Translational Sciences (NCATS), 2018).
“And” between values parts separate entries of the source, which are not always exact repeats. Identical values can stand only once. The campaign covered roughly 48,000 compounds. About 1,200 (2.5%) were called active. Roughly 2% stayed inconclusive and do not appear here.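 The calls were made as follows: active = activation of at least 60% and not above a set upper limit (about 1 call in 100 departs from these limits); inconclusive = activation of 40% to 60%, or above that upper limit; inactive = activation under 40%.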 Some of the results follow.

Molecular target: Probable G-protein coupled receptor 32 (Homo sapiens) (UniProt O75388)
Experiment: qHTS for Agonists of Human Resolvin D1 Receptor DRV1; also: 0% is about no effect
Details: CHO-K1 GPR32 beta-arrestin PathHunter luminescence, 90 min; at 76.9 µM; stronger effect = higher value; zero percent set by DMSO-only wells
Method in brief: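 PathHunter beta-arrestin recruitment in CHO-K1 cells stably expressing ProLink-tagged GPR32. Cells were exposed to compound for 90 min at 37 C, then chemiluminescence was read after 1 h detection at ambient temperature; DMSO served as basal control.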

UniProt O75388, sequence (O75388 whole entry, looked up): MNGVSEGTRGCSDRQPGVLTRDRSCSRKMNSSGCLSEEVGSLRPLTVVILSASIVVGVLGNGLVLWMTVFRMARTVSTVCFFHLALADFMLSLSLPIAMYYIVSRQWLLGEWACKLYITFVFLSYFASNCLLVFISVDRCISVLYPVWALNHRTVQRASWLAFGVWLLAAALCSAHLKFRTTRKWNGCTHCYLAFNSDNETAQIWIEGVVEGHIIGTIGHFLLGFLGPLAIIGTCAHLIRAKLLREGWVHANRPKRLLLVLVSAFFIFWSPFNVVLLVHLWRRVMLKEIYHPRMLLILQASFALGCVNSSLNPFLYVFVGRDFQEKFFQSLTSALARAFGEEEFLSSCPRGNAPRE

| SMILES | activation |
| --- | --- |
| CCOc1ccc(NC(=O)c2c(NC(=O)c3cccs3)sc3c2CCC(C(C)(C)C)C3)cc1 (stereo unspecified) | inactive: -20.7% |
| CN1CCN(C(CNC(=O)c2ccccc2)c2ccc3c(c2)OCO3)CC1 (stereo unspecified) | inactive: -0.989% |
| Cc1ccc(S(=O)(=O)c2cn(Cc3ccc(F)cc3)c3cc(N4CCCC4)c(F)cc3c2=O)cc1 | inactive: -9.13% |
| CCOc1ccc(CCNC(=O)c2cc3sc(CC)cc3n2C)cc1OCC | inactive: -10.6% |
| CCc1ccccc1NC(=O)C(=O)NCCc1sc(-c2cccc(F)c2)nc1C | inactive: -1.76% |
| Cc1ccc(CNC(=O)c2ccc(-c3nc(CS(=O)(=O)c4ccc(C)cc4)c(C)o3)cc2)cc1 | active: 110% |
| Cc1[nH]c2ccccc2c1SCCNC(=O)c1ccccc1F | inactive: -14.3% |
| COC(=O)c1ccccc1-n1c(CCC(=O)O)ccc1-c1ccccc1 | inactive: -8.55% |
| COc1cccc(CNC(=O)c2ccc3c(c2)nc2n3CCC(C)C2)c1OC (stereo unspecified) | inactive: -7.34% |
| O=C(NCc1ccccc1Cl)c1cc2cccc3c2n1CCS3 | inactive: -7.54% |
| CC(C)Oc1ccc(CNC(=O)Cn2ncn3nc(-c4cccs4)cc3c2=O)cc1 | inactive: 6.46% |
| CCOC(=O)C1CCCN(C(=O)c2[nH]c3ccccc3c2Sc2ccc(Cl)cc2)C1 (stereo unspecified) | inactive: -11% |
| COc1ccc(C(=O)NCC(c2ccco2)S(=O)(=O)c2cccs2)cc1OC (stereo unspecified) | inactive: -18.6% |
| Cc1ccnc(NS(=O)(=O)c2ccc(NC(=O)c3nc(SC(C)C)ncc3Cl)cc2)n1 | inactive: -4.47% |
| Cc1cccc(-c2nc3ccccc3n3c(-c4ccccc4)c4c(=O)n(C)c(=O)n(C)c4c23)c1 | inactive: -7.52% |
| CC(C)(C(=O)O)c1ccc(C(O)CCCN2CCC(C(O)(c3ccccc3)c3ccccc3)CC2)cc1 (stereo unspecified) | inactive: 8.57% and inactive: -9.04% |
| O=C(Nc1ccc(F)c(Cl)c1)N1CCC(CN2CCc3ccccc3C2)CC1 | inactive: -25.1% |
| CCC(C)NC(=O)CCc1c(C)nc2cc(-c3ccc(OC)cc3OC)nn2c1C (stereo unspecified) | inactive: -2.88% |
| Cc1cccc(CCNC(=O)C2CCN(c3nc4ccccc4nc3C(F)(F)F)CC2)c1 | inactive: -1.99% |
| CCc1ccc(NC(=O)Cn2cnc3sc(C)c(S(=O)(=O)N4CCN(c5ccccc5OC)CC4)c3c2=O)cc1 | inactive: -6.97% |
| Cc1ccc(-n2ncc3c(NCC(C)C)ncnc32)c(C)c1 | active: 62.3% |

| SMILES | activation |
| --- | --- |
| CCc1cccc(NC(=O)c2ccc(CNS(=O)(=O)c3ccc4c(c3)C(C)(C)C(=O)N4C)cc2)c1 | inactive: -8.17% |
| COc1ccccc1-c1cc2nc(C)c(CCC(=O)Nc3cc(C)ccc3C)c(C)n2n1 | inactive: 9.13% |
| COC(=O)c1ccccc1-n1cc2c(c1-c1cccc(C)c1)c(=O)n(C)c(=O)n2C | inactive: -11.8% |
| Cc1oc(-c2ccccc2F)nc1CSc1nnc(C)n2c1cc1occc12 | inactive: 10.5% |
| CC(C)(C)OC(=O)N1CCC(c2c(C(=O)N3CCOCC3)cnn2-c2cccc(F)c2)CC1 | inactive: -3.48% |
| Cc1ccc(C)c(NC(=O)Nc2cccc(-c3cn4cccnc4n3)c2)c1 | active: 79.7% |
| COc1ccc(-n2nnc(-c3nc(-c4cccs4)no3)c2N)cc1 | inactive: -1.11% |
| CCCN(CCC)CCNC(=O)C1CCN(c2nc3ccc(CC)cc3s2)CC1 | inactive: -2.39% |
| O=C(CSc1nc2c(c(=O)[nH]1)CN(Cc1ccc3c(c1)OCO3)CC2)Nc1ccc(F)c(F)c1 | inactive: 24.5% |
| O=C(Nc1ccc(C(=O)N2CCN(c3ccccc3)CC2)cc1)c1nsc2ccccc12 | inactive: -26.1% |
| CCOC(=O)c1cnc2ccc(Cl)cc2c1Nc1ccc(N2CCOCC2)cc1 | inactive: 7.96% |
| COc1ccc(CNC(=O)c2cc3sccc3n2Cc2ccc(C)cc2)cc1 | inactive: -4.81% |
| NC(=O)CNCCC(c1ccccc1)c1ccccc1 | inactive: -0.686% |
| O=C(NCCN1CCCCC1)c1ccc(Cn2c(SCc3ccccc3)nc3cccnc32)cc1 | inactive: -10.1% |
| COCCCn1c(-c2ccc(S(=O)(=O)N3CCOCC3)cc2)csc1=Nc1ccccc1 | inactive: -49.9% |
| CC1(c2ccc(Cl)cc2)CC(C)(C)N(C(=O)c2cccc(F)c2)c2ccccc21 (stereo unspecified) | inactive: -20.3% |
| O=C(Cc1ccccc1)Nc1sc2c(c1C(=O)Nc1ccc(Br)cc1)CCCC2 | inactive: -15.9% |
| CC(=O)c1ccc(NS(=O)(=O)c2ccc(-n3cccn3)cc2)cc1 | inactive: -4.81% |
| Cc1ccc(C(=O)NC2(C(F)(F)F)N=C(c3ccccc3)N(Cc3ccccc3)C2=O)cc1 (stereo unspecified) | inactive: -3.69% |
| Cc1ccc(C(=O)Oc2cc(-c3ccc4c(c3)OCO4)cc(=O)c3c(C)oc(C)c23)cc1 | inactive: -6.35% |
| CCc1c(C)[nH]c2c1C(=O)C(CN1CCOCC1)CC2 (stereo unspecified) | inactive: 5.51% and inactive: 3.65% |

| SMILES | activation |
| --- | --- |
| Cc1ccc(NC(=O)C2CCN(c3nc(-c4ccc(C(C)C)cc4)no3)CC2)c(Cl)c1 | inactive: -9.11% |
| Cc1ccccc1NC(=O)CSc1nc(-c2ccco2)nc2cc(=O)[nH]n12 | inactive: -3.2% |
| O=C(c1ccc2c(c1)N(Cc1ccc(Cl)cc1)C(=O)c1ccccc1S2=O)N1CCCCC1 (stereo unspecified) | inactive: 11.1% |
| COc1ccccc1NC(=O)Cn1c(=O)n(CC(=O)NCc2ccccc2Cl)c(=O)c2sccc21 | inactive: 6.35% |
| COc1ccc(C(=O)Oc2c(Sc3ccc(C)cc3)c(C)nn2C(C)(C)C)cc1OC | inactive: -7.14% |
| CCOc1ccc(CNC(=O)c2cc(-c3ccc(Cl)s3)nc3ccccc23)cc1 | inactive: -4.71% |
| CCOC(=O)C1CCN(C(c2ccc(C)cc2)c2c(O)cc(C)n(CCOC)c2=O)CC1 (stereo unspecified) | inactive: -15.1% |
| Cc1ccc(NC(=O)Cn2cc(C(=O)C3CCCCC3)c3ccccc32)cc1 | inactive: -12.9% |
| CCOc1ccc(-c2cc(CCCC(=O)NCCc3cc(OC)c(OC)c(OC)c3)no2)cc1 | active: 72.4% |
| Cc1cccc(NC(=O)CCNS(=O)(=O)c2ccc3c(c2)CCN3C(=O)C2CC2)c1 | inactive: 5.21% |
| CCO/C([O-])=N/c1c[n+](N2CCOCC2)no1 | inactive: -1.76% and inactive: -0.877% |
| Nc1ccc(O)c([N+](=O)[O-])c1 | inactive: -99.9% |
| COc1ccc(CCNC(=O)CCCn2nc(C)c3sc4ccccc4c3c2=O)c(OC)c1 | inactive: -14.2% |
| CCOc1ccc(NC(=O)Cn2c(=O)n(CCCS(=O)(=O)C3CCCCC3)c(=O)c3ccccc32)cc1 | inactive: -11.1% |
| Cc1ccc(NC(=O)C2CCC(CNS(=O)(=O)c3cccc4nsnc34)CC2)c(Cl)c1 (stereo unspecified) | inactive: 5.49% |
| Cc1ccc(C(=O)Nc2ccccc2)cc1S(=O)(=O)Nc1ccccc1 | active: 94.8% |
| COC(=O)c1c(C)oc2ccc(N(C(=O)c3ccncc3)S(=O)(=O)c3cc(C)ccc3C)cc12 | inactive: 20.1% |
| COc1ccc(N2CCN(C(=O)C3CCN(S(=O)(=O)c4cn(C)cn4)CC3)CC2)cc1 | inactive: -20.3% |
| Cc1ccc(OC(=O)CSc2nnc(-c3ccc4c(c3)OCO4)o2)cc1 | inactive: -2.33% |
| Cc1ccc(-n2ncc3c(N4CCC(Cc5ccccc5)CC4)ncnc32)cc1C | inactive: 15% |
| Cc1cccc(N(C)C(=O)Cc2c(C(=O)O)[nH]c3ccccc23)c1 | inactive: 6.06% |

| SMILES | activation |
| --- | --- |
| O=C(OCC1CCCO1)c1ccc2c(c1)N(Cc1ccccc1)C(=O)c1ccccc1S2(=O)=O (stereo unspecified) | inactive: -7.07% |
| CCc1ccccc1NC(=O)CN1C(=O)CCSc2ccc(S(=O)(=O)N3CCCC3)cc21 | inactive: -14.2% |
| CCN(CC)S(=O)(=O)c1ccc2c(c1)nc(CN(C)C(=O)Nc1ccc(C)c(F)c1)n2C | inactive: -1.5% |
| CCOC(=O)C1CCCN(C(=O)Cn2ncc3c4ccccc4n(Cc4ccccc4)c3c2=O)C1 (stereo unspecified) | inactive: -9.02% |
| COC(=O)c1ccc(CSc2nc3c([nH]c4ccccc43)c(=O)n2-c2cccc(Cl)c2)o1 | inactive: -6.4% |
| CCc1ccccc1NC(=O)C(C)n1c(=O)cc(C)c2c(C)nn(-c3ccccc3)c21 (stereo unspecified) | inactive: -17.3% |
| O=[N+]([O-])c1cncn1CCN1CCOCC1 | inactive: -11.9% |
| COc1ccc(N2CCN(C(=O)COCc3cc(-c4ccc5c(c4)OCO5)on3)CC2)cc1 | inactive: -24.5% |
| COc1ccccc1NC(=O)c1cc2c(C)nn(-c3ccccc3)c2s1 | inactive: -5.06% |
| Cc1ccc(NC(=O)c2nc(S(C)(=O)=O)ncc2N(Cc2ccco2)Cc2cccs2)cc1C | inactive: -18.5% |
| COc1ccc(NC(=O)c2sc3nc(C(F)(F)F)cc(C)c3c2N)cc1OC | inactive: 3.52% |
| Cc1cc(C)cc(Oc2nc3ccccn3c(=O)c2/C=C(\C#N)c2nc3ccccc3s2)c1 | inactive: -9.22% |
| O=C(NC1CCN(Cc2ccccc2)CC1)c1ccc(Cn2c(=O)c3ccccc3n(Cc3ccc(F)cc3)c2=O)cc1 | inactive: -16.4% |
| CCn1nc(-c2ccccc2)c(-c2ccccc2)c(C(=O)Nc2ccc(NC(C)=O)cc2)c1=O | inactive: -3.62% |
| Cn1c(=O)cc(SCC(=O)N2CCN(c3ccccc3F)CC2)c2ccc(Cl)cc21 | inactive: 7.63% |
| Cc1ccccc1OCCSc1nc2ccc(NC(=O)c3cccs3)cc2s1 | inactive: 8.52% |
| COCCCNC(=O)CSc1nc2cc3c(cc2c(=O)n1CCCC(=O)NCc1ccc2c(c1)OCO2)OCO3 | inactive: -10.8% |
| COc1ccc(OC)c(NC(=O)Nc2c(C)n(C)n(-c3ccccc3)c2=O)c1 | inactive: 0.701% |
